Where “and” joins values, the source holds several entries; their conditions need not be identical. Equal entries are not always repeated. The campaign covered roughly 110,000 compounds. About 230 (0.21%) showed an effect of 50% or more. This is one part of the list.
target: DPAP1 (Plasmodium falciparum, UniProt Q8IIJ9); experiment: primary screen, percent inhibition; read by cleavage of a fluorogenic dipeptide substrate; higher = more effect of the substance; design: species or system P. falciparum D10 trophozoite lysates; single well
Sequence (Q8IIJ9 whole entry, looked up): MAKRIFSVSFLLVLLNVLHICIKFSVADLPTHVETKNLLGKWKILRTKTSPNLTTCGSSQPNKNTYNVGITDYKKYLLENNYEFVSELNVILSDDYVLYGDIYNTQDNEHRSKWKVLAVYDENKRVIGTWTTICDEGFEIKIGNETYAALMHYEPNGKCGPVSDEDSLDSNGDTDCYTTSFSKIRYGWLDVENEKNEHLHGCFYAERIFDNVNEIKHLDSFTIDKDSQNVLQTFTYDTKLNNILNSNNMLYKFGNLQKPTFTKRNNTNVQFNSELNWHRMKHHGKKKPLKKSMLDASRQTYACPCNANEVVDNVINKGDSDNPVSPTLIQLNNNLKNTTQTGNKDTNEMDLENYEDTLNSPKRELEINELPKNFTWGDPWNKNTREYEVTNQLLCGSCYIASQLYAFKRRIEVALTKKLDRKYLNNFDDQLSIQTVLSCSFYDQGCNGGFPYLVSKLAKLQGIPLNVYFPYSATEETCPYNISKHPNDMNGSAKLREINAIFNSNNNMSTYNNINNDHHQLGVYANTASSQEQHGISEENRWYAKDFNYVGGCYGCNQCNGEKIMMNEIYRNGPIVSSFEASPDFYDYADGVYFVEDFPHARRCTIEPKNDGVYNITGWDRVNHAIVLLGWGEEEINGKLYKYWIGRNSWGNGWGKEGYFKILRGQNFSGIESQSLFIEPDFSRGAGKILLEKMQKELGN
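Note: 30 min substrate incubation versus DMSO and 10 µM JCP410 controls.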

Compound | % Inhibition @ 10 uM
COc1ccc(C2=NN(CCC(=O)NCCc3ccc(OC)c(OC)c3)C(=O)CC2)cc1 | 3.24%
Cc1cccn2c(=O)c3cc(C(=O)NCCc4ccccc4)n(C)c3nc12 | 4.19%
CCC(=O)N1N=C2C3CCN(CC3)C2C1c1cccc(OC)c1OC (centres unmarked) | 2.57%
CN(C)CCC(O)(c1ccccc1)c1nc2ccccc2n1C (centres unmarked) | 0.0538%
Cc1ccc(Cn2c(=O)c3cccnc3n(CC(=O)Nc3cc(C)[nH]n3)c2=O)cc1 | -3.44%
O=S(=O)(c1cccc(C(F)(F)F)c1)N1CCC(c2nc3ccccc3s2)CC1 | 2.29%
CC1(C)CC(CCN)(c2ccccc2)CCO1 (centres unmarked) | -6.25%
Cc1ccccc1-c1nc2cc(NC(=O)c3cccc([N+](=O)[O-])c3)ccc2o1 | -1.48%
CC(C)CN(CC(C)C)C(=O)c1ccc2c(c1)OCO2 | 3.53%
CCc1ccc(S(=O)(=O)c2cnc3cc(F)c(F)cc3c2O)cc1 | -0.0115%
NC(=O)C1CCCN(Cc2ccccc2Br)C1 (centres unmarked) | -0.603%
CC(C)(C)c1ccc(C23OC(=O)C(C)(C)C2OC(=O)C3(C)C)cc1 (centres unmarked) | -3.14%
Cc1ccc(S(=O)(=O)c2cc3c(=O)n4ccccc4nc3n(Cc3ccccc3)c2=N)cc1 | -4.61%
Nc1ccc(NC(=O)c2ccccc2Br)cc1 | -0.0494%
C/C=C(\C)CN1CCN(c2ccc(F)cc2)CC1 | -1.5%
O=C(COc1ccccc1C1CC(=O)Nc2ccc3ccccc3c21)Nc1ccccc1 (centres unmarked) | -2.53%
CCN(CC)CCCNc1cc(C(F)(F)F)c(C#N)c2nc3ccccc3n12 | 2.56%
O=C(NC1CCCCCC1)C1c2ccccc2C(=O)N1C1CCCC1 (centres unmarked) | 1.16%
CC(C)NC(=O)COc1ccc(Cl)cc1Cl | 5.09%
CC1=CSC2=NC(=O)/C(=C\c3ccc(SCc4ccc(Cl)cc4)o3)C(=N)N12 | -0.22%
CCCN(CCO)Cc1cc(Br)ccc1OC | -0.0494%
Cc1ccc(N2C(=O)C(Cl)=C(N(C)c3ccccc3)C2=O)cc1 | 5.67%
CC(=O)C12CCCCC1CC1C3CC(C)[C@@]4(O)CC(O)CCC4(C)C3CCC12C (some centres unmarked) | 5.66%
CC(NC(=O)c1cc(-c2ccco2)on1)c1ccccc1 (centres unmarked) | -1.84%
CCOC(=O)c1c(C)[nH]c(C)c1S(=O)(=O)NCCc1sccc1C | -7.13%

Compound | % Inhibition @ 10 uM
CC(C)CC(C(=O)NCC#N)c1cccc(-c2cccc(C(=O)N3CCN(CCO)CC3)c2)c1 (centres unmarked) | -1.41%
O=C(c1cnn2c1NC(c1ccccc1)CC2C(F)(F)F)N1CCOCC1 (centres unmarked) | 0.687%
OC1CCN(Cc2c(F)cccc2Cl)CC1 | 4.51%
COc1cc(C2C3=C(CC(C)(C)CC3=O)N(C)C3=C2C(=O)CC(C)(C)C3)cc(Br)c1O | -5.66%
CC(c1ccccc1)N1C(=O)c2ccc(C(=O)Nc3ccccc3C(=O)O)cc2C1=O (centres unmarked) | 3.21%
CC(=O)Nc1cccc(NC(=O)c2ccccc2Cl)c1 | -5.65%
CC(C)C[C@H](NC(=O)c1ccc(-c2c(Cl)cc(C(=O)O)cc2Cl)cc1)C(=O)NCC#N | -6.56%
COc1cc(OC)cc(C(=O)Nc2ccccc2)c1 | 1.17%
O=C(Nc1cccc(C(F)(F)F)c1)c1cc2ccccc2c(=O)s1 | -0.318%
CCOc1cccc2cc(-c3nc(-c4cccnc4)no3)c(=O)oc12 | 2.73%
CC1(C)CC(CCN2CCCC2)(c2ccccc2)CCO1 (centres unmarked) | -0.424%
CCCOc1ccc(C(=O)N(Cc2cccc(OC)c2)C2CCS(=O)(=O)C2)cc1 (centres unmarked) | -4.95%
O=C(NCCc1ccc(Cl)cc1)c1ccc(S(=O)(=O)N2CCOCC2)cc1 | 4.19%
O=C(Nc1ccc(S(=O)(=O)N2CCCCCC2)cc1)c1ccc(Cl)cc1Cl | -0.173%
Cc1ccc(OCCCn2c(CCCO)nc3ccccc32)cc1 | 3.8% and -3.26%
CCCn1c2ccccc2c2cnn(CC(=O)N3CCC(N4CCCCC4)CC3)c(=O)c21 | -5.3%
CC(=O)c1cc2c(cc1NC(=O)c1ccc(Cl)cc1Cl)OCO2 | -9.66%
CC(C)C1OCCN1CC1COC2(CCCCC2)O1 (centres unmarked) | -2.18%
CCC/N=c1\c(NS(=O)(=O)c2ccc(OC)c(OC)c2)c(O)oc2ccccc12 | -3.33%
CC[C@H](NC(=O)[C@H](CC1(C)CCCCC1)/N=C(\C)NS(C)(=O)=O)C(=O)c1nc(-c2ccccc2)no1 | -6.56%
CC(C)C[C@H](NC(=O)OCC1CCCC1)C(=O)NCC#N | 0.174%
Cc1oc2c(C)c(O)ccc2c(=O)c1-c1ccccc1 | -5.69%
CCCC(=O)NCc1nc2ccccc2n1C | -7.44%
O=C1c2ccccc2C(=O)N1c1ccc(O)c2ccccc12 | -2.91%
O=C(Nc1ccc(S(=O)(=O)Nc2ccccc2)cc1)C1CC1 | -8.09%

Compound | % Inhibition @ 10 uM
O=C(O)c1c2ccccc2nc2ccccc12 | -4.77%
CC(CCc1ccccc1)NC(=O)c1cccnc1Cl (centres unmarked) | -5.35%
CC1=C(C(=O)OCc2ccccc2)C(c2ccc(Cl)c(Cl)c2)NC(=O)N1C (centres unmarked) | 15.6%
COc1ccc(NC(=O)CN(c2cccc3ccccc23)S(C)(=O)=O)cc1OC | -10.5%
CC(C)(C)C1CCC(OC(=O)C2CC=CCC2C(=O)OCC2CCCO2)CC1 (centres unmarked) | 6.33%
CCC(COc1nnnc2ccccc12)NS(=O)(=O)c1ccc(-n2cnnn2)cc1 (centres unmarked) | -2.84%
COc1ccccc1N1C(=O)c2ccc(C(=O)Nc3ccccc3C(=O)NCC(C)C)cc2C1=O | -0.0619%
CCOC(=O)c1c(NC(C)=O)sc2c(O)c(Br)cc(Br)c12 | -1.45%
Cc1ccc(S(=O)(=O)N2CCC(C(=O)NCCc3ccc(Cl)cc3)CC2)cc1 | 2.05%
C=CCN1C(=O)/C(=C\c2c[nH]c3ccccc23)C(=O)NC1=S | 4.26%
O=C(NCCCN1CCc2ccccc2C1)c1ccc2c(c1)ncn2C1CCCC1 | -1.34%
COc1ccc(CCNc2nc3c(c(C(F)(F)F)n2)CC(C)CC3)cc1OC (centres unmarked) | -2.49%
Cc1cc(C)n2cc(COc3ccccc3)nc2n1 | -7.17%
Clc1ccc(-c2cn3c4c(sc3n2)CCCC4)cc1 | 7.15%
CCN(CC)S(=O)(=O)c1ccc(-c2csc(Nc3ccc(Cl)cc3)n2)cc1 | -0.687%
Fc1ccc(CN2CCOCC2)c(F)c1 | -1.78%
O=C(/C=C/c1ccc(Cl)cc1)Nc1ccc(Br)cc1 | 4.4%
CC(C)C(NC(=O)C1COc2ccccc2O1)C(C)C (centres unmarked) | -6.94%
COc1ccccc1/C=C1/C(=N)N2N=C(C(F)(F)F)SC2=NC1=O | -2.87%
Cc1c(NC(=O)Cn2cnc3c(=O)n(C)c(=O)n(C)c32)cccc1-c1nc2ccccc2o1 | -0.473%
OCCN1CCN(c2ncnc3c2c(-c2ccccc2)cn3-c2cccc(C(F)(F)F)c2)CC1 | -5.93%
CC1CCc2c(C(=O)NC3CCCc4ccccc43)csc2C1 (centres unmarked) | -6.95%
COc1ccc(CCNC(=O)C2CCCNC2=O)cc1OC (centres unmarked) | 0.128%
COc1cccc(N(CC(=O)N2CCC(Cc3ccccc3)CC2)S(=O)(=O)c2ccccc2)c1 | 7.5%
COc1ccc(CCNC(=O)CSc2nnc3ccccn23)cc1 | 3.47%

Compound | % Inhibition @ 10 uM
Cc1cc2c(c(O)n1)C(=O)O/C2=C\c1ccc(Cl)cc1Cl | 0.611%
CC(NC(=O)c1ccc(CS(=O)(=O)Cc2ccccc2F)o1)c1ccc2c(c1)OCCO2 (centres unmarked) | -2.72%
Cc1onc(-c2ccccc2Cl)c1C(=O)NC1CCCCCC1 | -4.75%
CCc1ccc(S(=O)(=O)Nc2ccc([N+](=O)[O-])cc2C)cc1 | -1.25%
COc1cc([N+](=O)[O-])cc2c1NC(C(C)C)C1CC=CC21 (centres unmarked) | 1%
COc1ccc(N(Cc2ccc(Br)cc2)C(=O)c2ccc(Cl)cc2Cl)cc1 | -2.51%
COc1ccc(CN2CCC(Cc3ccccc3)CC2)cc1C | -0.192%
Cc1cc(=O)n2nc(N3CCCC(C(=O)NCc4cccnc4)C3)sc2n1 (centres unmarked) | 1.38%
COc1cc2nc(O)c3sc4ccccc4c3c2cc1OC | -10.2%
O=C(Nc1ccc2c(c1)C(=O)NC2=O)c1ccccc1 | 1.42%
Cc1ccnc(NS(=O)(=O)c2ccc(NC(=O)C3CCCCC3)cc2)n1 | -4.26%
CC(C)CSC1=NSC2=NC(=O)/C(=C\c3ccccc3)C(=N)N12 | 3.97%
COc1cccc(CSc2nc3ccccc3c3nc(CCc4c(C)n[nH]c4C)nn23)c1 | 4.81%
CN(C)CCCN(C(=O)c1ccccc1Br)c1nc2c(F)cccc2s1 | 8.55%
O=C(Nc1ccc(Br)cn1)c1cc2n(n1)C(C(F)(F)F)CC(c1ccccc1)N2 (centres unmarked) | 50.4%
Cc1ccc(CNC(=O)NC(C)c2c(-n3cccc3)sc(C)c2C)cc1 (centres unmarked) | -8.96%
O=C(O)[C@@H]1CSC(c2ccc(F)cc2)N1 (some centres unmarked) | -3.38%
Cc1cccc(NC(=O)CSc2nc(-c3ccc(Cl)cc3)c[nH]2)c1 | 0.673%
Cc1nc2ccccc2c2oc(C(=O)N3CCC(Cc4ccccc4)CC3)cc12 | -0.0115%
O=C(NCc1ccco1)C1CCN(c2nc3ccc(Br)cc3s2)CC1 | -5.15%
Cc1c(C(=O)N2CCN(Cc3ccccc3)CC2)oc2ccccc12 | -6.52%
CCOc1cc(C)cc2oc(=O)c3c(c12)CCCC3 | 1.39%
COc1ccc(N2C(=O)CC(N3CCC(C(=O)O)CC3)C2=O)cc1 (centres unmarked) | -6.62%
